# The list shows a part of the results.
# B1: Mindin (Homo sapiens), Q9BUD6 (protein)
# chain: MENPSPAAALGKALCALLLATLGAAGQPLGGESICSARALAKYSITFTGKWSQTAFPKQYPLFRPPAQWSSLLGAAHSSDYSMWRKNQYVSNGLRDFAERGEAWALMKEIEAAGEALQSVHEVFSAPAVPSGTGQTSAELEVQRRHSLVSFVVRIVPSPDWFVGVDSLDLCDGDRWREQAALDLYPYDAGTDSGFTFSSPNFATIPQDTVTEITSSSPSHPANSFYYPRLKALPPIARVTLVRLRQSPRAFIPPAPVLPSRDNEIVDSASVPETPLDCEVSLWSSWGLCGGHCGRLGTKSRTRYVRVQPANNGSPCPELEEEAECVPDNCV
# Legend:
# [1] = target: Neu5Gc(a2-6)Gal(b1-4)GlcNAc; assay: glycan array binding signal (z-score within array); higher = stronger binding; conditions: glycan notation: IUPAC condensed, linker removed
# Outline: (§1)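 Glycan array binding is given as a within-array Z-score, which can be read as non-binding when negative. The arrays, 3228 of them, came from the Consortium for Functional Glycomics database and were retained only where the protein sequence was available. Z-scores were averaged across arrays of the same protein sequence at different concentrations or buffers and across linkers.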
# [2] = target: Neu5Gc(a2-6)GalNAc; assay: as above; conditions: glycan notation: IUPAC condensed, linker removed
# Outline: as §1
binder,measurement,setting,value
B1,glycan array binding signal (z-score),[1],-0.363
same,glycan array binding signal (z-score),[2],-0.312
